Some of the results follow.

In the assay the target is T1, OsWOX13 (Oryza sativa, UniProt Q5QMM3 1-267).
T1 sequence: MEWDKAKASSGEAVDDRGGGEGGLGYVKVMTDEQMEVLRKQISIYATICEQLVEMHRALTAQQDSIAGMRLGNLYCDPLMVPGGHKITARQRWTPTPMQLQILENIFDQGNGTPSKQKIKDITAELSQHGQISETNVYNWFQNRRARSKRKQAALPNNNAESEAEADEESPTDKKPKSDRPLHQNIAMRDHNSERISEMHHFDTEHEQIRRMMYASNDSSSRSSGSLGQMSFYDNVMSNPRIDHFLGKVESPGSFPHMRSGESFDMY
The assay can be described thus: protein-binding microarray (RPBM); PBS, 2% BSA, 51.3 ng/ul salmon testes DNA, 50 uM zinc acetate, 200 nM TF, 25 C, 1 h; high values mean tight binding. The following applies: protein: recombinant; tags: N-terminal polyhistidine and DsRed monomer fusion (pET32a); label: CyDye5-dUTP incorporated in the synthesized complementary strand; 3' TTTTT single-stranded linker to array surface; dsDNA, one strand shown. The procedure, abridged:
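An Axon 4000B scanner gave the binding signal as per-feature fluorescence intensity in arbitrary units. This followed washing of a custom Agilent array that had been incubated for 1 h at 25 °C with 200 nM protein in PBS, 2% BSA, salmon testes DNA and 50 µM zinc acetate. The proteins were transcription factors fused at the N-terminus to polyhistidine and DsRed, expressed in E. coli BL21-CodonPlus and purified on Ni–NTA.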
As to “CCAGCTTAATTGAGCCTGATTAGCCGAATCCATAATTGTGCGGAGTCACCTAGTGCAG”, the binding signal is 63800 fluorescence intensity (a.u.).
As for “CCTGACATGAAGGTGGATGTAATGGAGGATATGCATTGGGCGGAGTCACCTAGTGCAG”, the figure is 3830 fluorescence intensity (a.u.); as for “ACTGTAATGGGATTGTTTGTGTGCTTCCTGCCTTCTCATACGGAGTCACCTAGTGCAG”, 7990 fluorescence intensity (a.u.); as for “ACTCTCATGACAGCTCTATCAGATCATAAGAAATTTGCAACGGAGTCACCTAGTGCAG”, 3220 fluorescence intensity (a.u.).
With “GTTAACTAATTAGGGCGTATGAACAAGTCATCGTGGCAGTCGGAGTCACCTAGTGCAG” the figure was 23000 fluorescence intensity (a.u.); with “CCTACTTGGTTGATTGAGCGTTAGGAAAACATATCCATACCGGAGTCACCTAGTGCAG”, 27900 fluorescence intensity (a.u.).
Take “ATTAATCATGTTTTATCATCTAACAACAATGAAAATACTACGGAGTCACCTAGTGCAG”: the binding signal is 3430 fluorescence intensity (a.u.).
As for “CAACATAATTTCAGTTGCTAATGCTAAGGCCTCTCACAGTCGGAGTCACCTAGTGCAG”, the binding signal is 6560 fluorescence intensity (a.u.).
With “TCTCCAAGATTGATCCGCATCTCCAACTAAACCCTCTCCTCGGAGTCACCTAGTGCAG” the figure was 7230 fluorescence intensity (a.u.); with “AATAATTCACAGTAAATAACATTTATATAAATATTTTGGACGGAGTCACCTAGTGCAG”, 5860 fluorescence intensity (a.u.).
As for “AGCACAAATTTGTTCATCTTATTAATGTATATGTGTTGCTCGGAGTCACCTAGTGCAG”, the figure is 16600 fluorescence intensity (a.u.).
With “CTAATGATGGATTAATTAGGCTTAATAAATTTGACTTGACCGGAGTCACCTAGTGCAG”, the binding signal is 46400 fluorescence intensity (a.u.).
As for “ATTTTGATTAGTGCGTTTGATTAGTGGTGTTTATTATGTCCGGAGTCACCTAGTGCAG”, the figure is 46100 fluorescence intensity (a.u.); as for “CTATGAATGATACATTGAAATTAGTACTAAGAAAATTTGCCGGAGTCACCTAGTGCAG”, 8360 fluorescence intensity (a.u.); as for “AACGCAATCAATTGTCCCTTATTTCCAGTGACATTCCTTACGGAGTCACCTAGTGCAG”, 9760 fluorescence intensity (a.u.).
As for “GGATTAAACTTATTGATGACATACCGGTGGAGTCAATGGACGGAGTCACCTAGTGCAG”, the figure is 10700 fluorescence intensity (a.u.).
With “AAATAGTTAGATTGATAGATAAAATCATAGAAATTATTTTCGGAGTCACCTAGTGCAG” the figure was 12700 fluorescence intensity (a.u.); with “TCCCACATTAAATTTACTCATTAGTTGTTAGGAATCGACACGGAGTCACCTAGTGCAG”, 6120 fluorescence intensity (a.u.); with “GATTTAGGGAATTGCAGTTGACTGACTTTAGCAAATACGACGGAGTCACCTAGTGCAG”, 3510 fluorescence intensity (a.u.).
Regarding “CACATAAACAGTTTGATGTTAAGGTCTCACAGCACAAGGCCGGAGTCACCTAGTGCAG”, the binding signal is 3550 fluorescence intensity (a.u.).
With “CACTCAATTAAAAGAGATTTCGTCAGCTCTTTTCCTTCAACGGAGTCACCTAGTGCAG”, the binding signal was 9280 fluorescence intensity (a.u.).
With “AAGATGATGACTGCCTCTGTGCCATTGAAAAGTTCGAACCCGGAGTCACCTAGTGCAG” the figure was 5810 fluorescence intensity (a.u.).
As to “AGCTGCTCAATCAAGATATGTATATGTGCACGCAGCTAGCCGGAGTCACCTAGTGCAG”, the binding signal is 7520 fluorescence intensity (a.u.).
“CACTTATTTGATTTATAAGTGAGCTCGCGGGTTGGCCCGCCGGAGTCACCTAGTGCAG”: the binding signal is 8070 fluorescence intensity (a.u.).
As for “TCACAATCATCGTCATTACATATCCCATATATCCCATTCACGGAGTCACCTAGTGCAG”, the figure is 9660 fluorescence intensity (a.u.); as for “GCAGTTGACAAAGTAGCAAATTTTGCCACCTGTTTCAGTGCGGAGTCACCTAGTGCAG”, 3240 fluorescence intensity (a.u.).
As for “AAAGAAACAATTAATCACATCATCCATATCAAGTTAGACCCGGAGTCACCTAGTGCAG”, the figure is 7370 fluorescence intensity (a.u.); as for “ACATCTGATGTGATAGAGACTTGTCCAATCTAAACAGTGTCGGAGTCACCTAGTGCAG”, 8950 fluorescence intensity (a.u.); as for “TAGCATGTTTAAATTGATGATAAGTAGAATTACTTATCCTCGGAGTCACCTAGTGCAG”, 18600 fluorescence intensity (a.u.).
For “CCAAATCAACGGTTTTGATGGGCCTAAGGCCTGAAACCATCGGAGTCACCTAGTGCAG”, the binding signal is 4660 fluorescence intensity (a.u.).
With “GCTGATTACAAGTATATTACTGGATTAGAGAGCCAGTTACCGGAGTCACCTAGTGCAG” the figure was 20500 fluorescence intensity (a.u.); with “CTAAACATGATATCACCAACTTCATCCTACCAAAATTTGGCGGAGTCACCTAGTGCAG”, 4320 fluorescence intensity (a.u.); with “AGTAATTAGCATCACCTCCCTCCTTGCTTATCAACACGTACGGAGTCACCTAGTGCAG”, 28100 fluorescence intensity (a.u.).
For the sequence “ATGACAGATTCCGTTTTGTAGGAGCAGCGCACCATTTCAGCGGAGTCACCTAGTGCAG”, the binding signal is 5570 fluorescence intensity (a.u.).
As for “TATCTATAAATCATTAACATATGGTCTCACATCTCATACACGGAGTCACCTAGTGCAG”, the figure is 3460 fluorescence intensity (a.u.).
With “GTTTTAAAATATAAATGATTTTGGTTTAATAGTATGCATTCGGAGTCACCTAGTGCAG” the figure was 4220 fluorescence intensity (a.u.); with “ATAATTATTTTAGTTTTAATTATCATAAACTTGGAAAATACGGAGTCACCTAGTGCAG”, 13000 fluorescence intensity (a.u.).
As for “TTTAGCAATTAAAAGTAATTTATGTGTAATATATTTACATCGGAGTCACCTAGTGCAG”, the figure is 10100 fluorescence intensity (a.u.); as for “AGATAATTTAGACCCACGATAATTGGATATTTCGACCGATCGGAGTCACCTAGTGCAG”, 36200 fluorescence intensity (a.u.); as for “TGAGATGTATAAATTTACTAAAATAGGAAAAGTAATACGGCGGAGTCACCTAGTGCAG”, 3560 fluorescence intensity (a.u.).
For “TTAAACTATATATCATTATATTTCTAGACCTAATGATTAACGGAGTCACCTAGTGCAG”, the binding signal was 3400 fluorescence intensity (a.u.).
As for “GCGGTTCATTAGTGCGTGATTAATTAAGTATTAGCTATTTCGGAGTCACCTAGTGCAG”, the binding signal is 10600 fluorescence intensity (a.u.).

The values are drawn from article PMC7819943, “Rice protein-binding microarrays: a tool to detect cis-acting elements near promoter regions in rice”.
